Results reported in the GPR68 mutational scans of Howard et al. (2025).
The least precise scores are not listed. Two further conditions of the source, in which the scores hardly spread, are not listed. Read del as a deletion of the residues named and ins as an insertion between two positions. For some of these results: The data file names ogerin without a concentration.

B1: GPR68, Q15743 (parent)
chain: MGNITADNSSMSCTIDHTIHQTLAPVVYVTVLVVGFPANCLSLYFGYLQIKARNELGVYLCNLTVADLFYICSLPFWLQYVLQHDNWSHGDLSCQVCGILLYENIYISVGFLCCISVDRYLAVAHPFRFHQFRTLKAAVGVSVVIWAKELLTSIYFLMHEEVIEDENQHRVCFEHYPIQAWQRAINYYRFLVGFLFPICLLLASYQGILRAVRRSHGTQKSRKDQIQRLVLSTVVIFLACFLPYHVLLLVRSVWEASCDFAKGVFNAYHFSLLLTSFNCVADPVLYCFVSETTHRDLARLRGACLAFLTCSRTGRAREAYPLGAPEASGKSGAQGEEPELLTKLHPAFQTPNSPGSGGFPTGRLA

Columns and labels:
[1] = variants of: B1; assay: cAMP reporter score (Enrich2 score, wild type = 0); higher = more signal; HEK293T, FACS bins
[2] = variants of: B1; assay: surface expression score (Enrich2 score, wild type = 0); higher = more signal; HEK293T, FACS bins

Variant	cAMP reporter score ([1]; pH 5.5)	cAMP reporter score ([1]; pH 6)	cAMP reporter score ([1]; pH 6, modulator: ogerin)	cAMP reporter score ([1]; pH 6.5, modulator: ogerin)	surface expression score [2]
MGNITADNSSMSCTIDHTIHQTLAPVVYVTVLVVGFPANCLSLYFGYLQIKARNELGVYLCNLTVADLFYICSLPFWLQYVLQHDNWSHGDLSCQVCGILLYENIYISVGFLCCISVDRYLAVVHPFRFHQFRTLKAAVGVSVVIWAKELLTSIYFLMHEEVIEDENQHRVCFEHYPIQAWQRAINYYRFLVGFLFPICLLLASYQGILRAVRRSHGTQKSRKDQIQRLVLSTVVIFLACFLPYHVLLLVRSVWEASCDFAKGVFNAYHFSLLLTSFNCVADPVLYCFVSETTHRDLARLRGACLAFLTCSRTGRAREAYPLGAPEASGKSGAQGEEPELLTKLHPAFQTPNSPGSGGFPTGRLA [A124V]	0.811	2.75	1.1	2.12	1.14
MGNITADNSSMSCTIDHTIHQTLAPVVYVTVLVVGFPANCLSLYFGYLQIKARNELGVYLCNLTVADLFYICSLPFWLQYVLQHDNWSHGDLSCQVCGILLYENIYISVGFLCCISVDRYLAVTHPFRFHQFRTLKAAVGVSVVIWAKELLTSIYFLMHEEVIEDENQHRVCFEHYPIQAWQRAINYYRFLVGFLFPICLLLASYQGILRAVRRSHGTQKSRKDQIQRLVLSTVVIFLACFLPYHVLLLVRSVWEASCDFAKGVFNAYHFSLLLTSFNCVADPVLYCFVSETTHRDLARLRGACLAFLTCSRTGRAREAYPLGAPEASGKSGAQGEEPELLTKLHPAFQTPNSPGSGGFPTGRLA [A124T]	-0.657	-0.258	-0.68		-2.3
MGNITADNSSMSCTIDHTIHQTLAPVVYVTVLVVGFPANCLSLYFGYLQIKARNELGVYLCNLTVADLFYICSLPFWLQYVLQHDNWSHGDLSCQVCGILLYENIYISVGFLCCISVDRYLAVSHPFRFHQFRTLKAAVGVSVVIWAKELLTSIYFLMHEEVIEDENQHRVCFEHYPIQAWQRAINYYRFLVGFLFPICLLLASYQGILRAVRRSHGTQKSRKDQIQRLVLSTVVIFLACFLPYHVLLLVRSVWEASCDFAKGVFNAYHFSLLLTSFNCVADPVLYCFVSETTHRDLARLRGACLAFLTCSRTGRAREAYPLGAPEASGKSGAQGEEPELLTKLHPAFQTPNSPGSGGFPTGRLA [A124S]	0.495	-0.684	-0.152	-0.447	
